For test [1], the target named is STAAU_R12 with E. coli core polymerase and λPR promoter DNA probe (Staphylococcus aureus, UniProt P0A0J0). In words: Electrophoretic mobility shift assay, STAAU_R12-dependent DNA binding. The format is biochemical. Conditions: pre-incubation with STAAU_R12, FIG. 9.
For test [2], the target named is T1, STAAU_R12 (Staphylococcus aureus, UniProt P0A0J0). Description: TR-FRET assay of STAAU_R12 / G1ORF67 interaction. The format is binding. Also on record: made in house; host or cells: E. coli BL21. Conditions: GB-G1ORF67 and HK-STAAU_R12, FIG. 5A. From the text:
TR-FRET technology was favorably used for monitoring the interaction of S. aureus phage G1ORF67 with its cognate target STAAU_R12 from S. aureus. This method is based on the energy transfer from a long-lived fluorophore (the energy donor) to anotherfluorophore (the energy acceptor) upon excitation of the donor (Mathis G., Clinical Chemistry (1995) 41:1391-1397). For this assay, Europium cryptate (Eu)-labeled anti-Histidine antibodies were used as energy donor and allophycocyanin (APC)-labeled anti-GST antibodies as energy acceptor. When the fluorescence donor and acceptor molecules are brought into close proximity as a result of a biomolecular interaction, flash excitation of Eu at 340 nm results in transfer of a portion of excitation energy non-radiatively to the APC acceptor which emits light at 665 nm. Under those conditions, the emission of light from APC adopts the time-resolved nature of the donor. Under conditions of no interaction and therefore of no proximity between the proteins under investigation, only background levels of emission from APC at 665 nm are detected.
Thus under the TR-FRET conditions, the interaction of HK-STAAU_R2 with GB-G1ORF67 induces a transfer of energy from Eu to APC, detected optimally at 665 nm. […]

Test [3] concerns the target T1, STAAU_R12. In words: Yeast two-hybrid analysis. The format is cell-based. The arrangement: expressed in transfected cells; host or cells: yeast strain AH109 (Clontech).
Test [4] has as its system RNA synthesis in S. aureus strain RN4220. Description: Macromolecular synthesis in S. aureus expressing the ORF (3H-uridine uptake). Type of test: cell-based, Staphylococcus aureus. Conditions: induced with 5 μM sodium arsenite, FIG. 11. The method, then:
To complement the inhibitory effect of G1ORF67 observed in vitro on the activity of STAAU_R12, we investigated the effect of G1ORF67 on the synthesis of macromolecules in S. aureus. To this end, the effect G1ORF67 on STMU_R12 was evaluated in the S. aureus strain RN4220 expressing G1ORF67 under the control of the arsenite promoter, by measuring the uridine uptake to monitor global transcription. As negative controls, 77ORF104 and other phage ORFs were used in parallel. Briefly, exponentially growing cells harboring G1ORF67 or the negative control ORFs were induced or not with 5 μM of sodium arsenite for different periods of time and then, 100 μl of the cells were withdrawn and subjected to a pulse labeling with 0.1 μCi/ml of ^3H-uridine (Amersham-Pharmacia) for 15 min at 37° C. Cells were then treated with 10% TCA for 30 min at 4° C. and unincorporated radioactivity was removed by filtration using Multiscreen™ 96-well plates (Millipore). The filters were washed with 10% TCA and 95% ethanol and then, liquid scintillation cocktail was added and the filters were counted using a Microbeta counter (Wallac).

For test [5], the system named is DNA and protein synthesis in S. aureus. Description: Macromolecular synthesis in S. aureus expressing the ORF (DNA and protein). Type of test: cell-based, Staphylococcus aureus. Particulars: induced conditions.

Here are results for one molecule from US20040157314A1, “Inhibitors of Staphylococcus aureus primary sigma factor and uses thereof” (priority 2003, published 2004).

T1 sequence (P0A0J0 whole entry): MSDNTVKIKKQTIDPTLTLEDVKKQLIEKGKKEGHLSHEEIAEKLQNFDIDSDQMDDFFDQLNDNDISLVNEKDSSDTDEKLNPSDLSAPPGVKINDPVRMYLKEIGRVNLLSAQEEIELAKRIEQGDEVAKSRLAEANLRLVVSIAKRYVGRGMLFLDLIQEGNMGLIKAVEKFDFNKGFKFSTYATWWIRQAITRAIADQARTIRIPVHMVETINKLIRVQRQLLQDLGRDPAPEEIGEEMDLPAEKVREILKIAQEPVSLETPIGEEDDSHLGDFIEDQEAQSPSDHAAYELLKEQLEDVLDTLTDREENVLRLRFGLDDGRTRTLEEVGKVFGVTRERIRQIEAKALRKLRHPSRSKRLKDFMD
STAAU_R12 with E. coli core polymerase and λPR promoter DNA probe, sequence (P0A0J0 whole entry): as above

B1: G1ORF67: 198 amino acids protein from S. aureus bacteriophage G1 (SEQ ID NO: 7), anti-primary sigma factor (protein)
chain: MKLKILDKDNATLNVFHRNKEHKTIDNVPTANLVDWYPLSNAYEYKLSRNGEYLELKRLRSTLPSSYGLDDNNQDIIRDNNHRCKIGYWYNPAVRKDNLKIIEKAKQYGLPIITEEYDANTVEQGFRDIGVIFQSLKTIVVTRYLEGKTEEELRIFNMKSEESQLNEALKESDFSVDLTYSDLGQIYNMLLLMKKISK
modifications: Bacteriophage G1
For the molecule B1, the “effect on DNA-protein complex formation (STAAU_R12 DNA binding)” value in test [1] is “interfere with the DNA protein complex formation”. Besides, the “TR-FRET interaction with STAAU_R12” value with STAAU_R12 [2] is listed as “interact with each other”. The “interaction with full length STAAU_R12 (growth on SD THAL minus medium)” value in the test with STAAU_R12 [3] (yeast AH109) is given as “interacts”. Moreover, in the test with STAAU_R12 [3] (yeast AH109, both directions), the “interaction with STAAU_R12 fragment amino acids 294 to 368 (SEQ ID NO: 4)” value is listed as “also interacted”. Also, the “interaction with STAAU_R12 fragment amino acids 294 to 360 (SEQ ID NO: 5)” value in the test with STAAU_R12 [3] (yeast AH109, one direction) is recorded as “found to interact”. For the same molecule, in test [4], the “RNA synthesis as monitored by uridine uptake” value is recorded as “marked reduction”. In test [5], the “effect on DNA synthesis” value is “no inhibitory effect” and the “effect on protein synthesis” value was “no inhibitory effect”.
